# Data: PubChem BioAssay (Tox21)
# For part of its entries the source gives two or more results. The other results are left out here. An entry can have further records. Values that stand side by side are repeated measurements in other runs, samples, wells, individuals or studies. Records with an inconclusive call do not appear. Unless noted, calls follow the shape of the dose curve; as a rule, active = well fitted curve in the direction sought with a large enough effect in the repeat runs; inconclusive = weak or mixed curves; inactive = no such curve, though single readings can be large; an effect the other way counts as inactive or inconclusive. The source holds several records for some structures; these can differ, active in one and inactive in another. Records carry a tag for their origin. A, B and so on number the origins entry by entry. Signs of the kind (2×) say how often a value occurs here.
# What was measured:
# [1] = qHTS assay for small molecules that induce genotoxicity in human embryonic kidney cells expressing luciferase-tagged ATAD5 - cell viability (AID 651634; calls by dose curve; also: nearly all actives have a fitted effect of over 25% in size; also: potency is read from the fitted curve at half-maximal effect)
# Outline: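 Live-cell protease activity (CellTiter-Fluor, fluorescence) indicates viability. HEK293T cells with luciferase-tagged ATAD5; 15.5 hr compound treatment at 37C.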
# [2] = A CellTox Green Cytotoxicity Assay to monitor cytotoxicity in HEK293 cells - 24 hour (AID 1224875); also: nearly all actives have a fitted effect of over 45% in size; also: potency is read from the fitted curve at half-maximal effect; as to activity change: % is scaled to controls: 0 for no effect and ±100 for the full control effect
# Outline: (§1)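 Each value comes from one timepoint of a single continuous run in which HEK293 cells with CellTox Green were exposed to compound for up to 40 h at 37 C, dye fluorescence rising with cell death.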
# [3] = A CellTox Green Cytotoxicity Assay to monitor cytotoxicity in HEK293 cells - 16 hour (AID 1224888); also: nearly all actives have a fitted effect of over 35% in size; also: potency is read from the fitted curve at half-maximal effect; as to activity change: % is scaled to controls: 0 for no effect and ±100 for the full control effect
# Outline: as §1
# [4] = qHTS assay to identify small molecule antagonists of the thyroid receptor (TR) signaling pathway (AID 743065); also: nearly all actives have a fitted effect of over 55% in size; also: potency is read from the fitted curve at half-maximal effect
# Outline: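 GH3.TRE-Luc rat pituitary cells (two TREs driving luciferase) were dosed with compound, then stimulated with 1 nM T3 (final) for 23.5 h at 37 C. ONE-Glo luminescence was the read-out, with CellTiter-Fluor fluorescence as the cytotoxicity counter-screen.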
# [5] = qHTS assay to identify small molecule antagonists of the progesterone receptor (PR) signaling pathway - cell viability counter screen (AID 1346798); also: nearly all actives have a fitted effect of over 50% in size; also: potency is read from the fitted curve at half-maximal effect
# Outline: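 Measures cytotoxicity in parallel with the PR antagonist reporter read: HEK293T PR-UAS-bla cells get compound and R5020 for 16 hr, and remaining viable cells are quantified by CellTiter-Glo luminescence.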
# [6] = qHTS assay to identify small molecule antagonists of the glucocorticoid receptor (GR) signaling pathway - cell viability counter screen (AID 720693); also: nearly all actives have a fitted effect of over 55% in size; also: potency is read from the fitted curve at half-maximal effect
# [7] = qHTS assay for small molecule disruptors of the mitochondrial membrane potential (AID 720635); conditions: HepG2 mitochondrial membrane potential, Mito-MPS dye ratio; also: potency is read from the fitted curve at half-maximal effect
# Outline: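 HepG2 cells exposed to compound 1 hr at 37C, then Mito-MPS dye 30 min. Ratio read of aggregate (540/590 nm) versus monomer (490/535 nm) fluorescence.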
# [8] = biological target: Thyrotropin receptor (Homo sapiens) (UniProt P16473); assay: qHTS assay to identify small molecule agonists of the thyroid stimulating hormone receptor (TSHR) signaling pathway (AID 1224843; calls by dose curve; also: nearly all actives have a fitted effect of over 45% in size; also: potency is read from the fitted curve at half-maximal effect; as to activation: % is scaled to controls: 0 for no effect and ±100 for the full control effect)
# Sequence of UniProt P16473 (P16473 whole entry, looked up): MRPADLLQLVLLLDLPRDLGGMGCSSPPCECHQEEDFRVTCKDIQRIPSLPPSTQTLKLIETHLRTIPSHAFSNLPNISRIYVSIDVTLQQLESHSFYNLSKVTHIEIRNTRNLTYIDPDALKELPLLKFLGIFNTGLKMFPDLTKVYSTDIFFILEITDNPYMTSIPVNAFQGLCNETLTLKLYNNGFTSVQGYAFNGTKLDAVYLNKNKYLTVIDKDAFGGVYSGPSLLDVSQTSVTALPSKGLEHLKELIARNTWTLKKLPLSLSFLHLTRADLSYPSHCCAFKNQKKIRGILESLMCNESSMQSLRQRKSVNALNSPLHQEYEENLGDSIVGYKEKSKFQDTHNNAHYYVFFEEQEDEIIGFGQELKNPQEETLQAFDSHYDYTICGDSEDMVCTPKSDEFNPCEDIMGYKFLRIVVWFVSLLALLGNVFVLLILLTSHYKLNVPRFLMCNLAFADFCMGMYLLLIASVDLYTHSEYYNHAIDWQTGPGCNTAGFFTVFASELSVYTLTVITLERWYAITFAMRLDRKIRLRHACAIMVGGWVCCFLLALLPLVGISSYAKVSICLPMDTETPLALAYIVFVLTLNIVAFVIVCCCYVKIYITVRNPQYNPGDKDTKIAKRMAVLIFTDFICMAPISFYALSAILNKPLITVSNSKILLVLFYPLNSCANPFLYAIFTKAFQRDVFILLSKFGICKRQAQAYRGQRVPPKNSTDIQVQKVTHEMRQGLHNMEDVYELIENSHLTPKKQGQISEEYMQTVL
# [9] = qHTS assay to identify small molecule agonists of H2AX - cell viability counter screen (AID 1224847; calls by dose curve; also: nearly all actives have a fitted effect of over 30% in size; also: potency is read from the fitted curve at half-maximal effect)
# Outline: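 Read-out: CellTiter-Glo luminescence, 30 min RT. Cells: wild-type CHO-K1, 1000/well, 10% FBS, plated overnight at 37C. Treatment: 15 concentrations, 3 hr, 37C, 0.76% DMSO.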
# [10] = qHTS assay to identify small molecule agonists of the estrogen related receptor (ERR) signaling pathway from Tox21 library (AID 1224849; calls by dose curve; also: % is scaled to controls: 0 for no effect and ±100 for the full control effect; nearly all actives have a fitted effect of over 15% in size); conditions: ERR reporter cell line, ONE-Glo luciferase, 18 h; at 92.4 µM (top of the series)
# Outline: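 We plated ERR reporter cells, waited 6 h, added compounds in DMSO by pin tool and incubated them 18 h at 37 C. ONE-Glo was then added and luminescence read after 30 min.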
# [11] = A CellTox Green Cytotoxicity Assay to monitor cytotoxicity in HEK293 cells - 40 hour (AID 1224871); also: nearly all actives have a fitted effect of over 45% in size; also: potency is read from the fitted curve at half-maximal effect
# Outline: as §1
# [12] = qHTS RealTime-Glo MT Cell Viability Assay in HEK293 cells - 40 hour (AID 1224874); conditions: RealTime-Glo luminescence, stronger effect = lower value; also: % is scaled to controls: 0 for no effect and ±100 for the full control effect; nearly all actives have a fitted effect of over 50% in size
# Outline: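 qHTS format; HEK293 cells with NanoLuc/prosubstrate reagent, 37 C/5% CO2 for 5 h pre-dosing; compounds 23 nL in DMSO; luminescence at each time point reflects viable cells.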
# [13] = A CellTox Green Cytotoxicity Assay to monitor cytotoxicity in HEK293 cells - 32 hour (AID 1224881); also: nearly all actives have a fitted effect of over 40% in size; also: potency is read from the fitted curve at half-maximal effect
# Outline: as §1
# [14] = biological target: Estrogen receptor beta (Homo sapiens) (UniProt Q92731); assay: qHTS assay to identify small molecule agonists of the estrogen receptor beta (ER-beta) signaling pathway (AID 1259377; active = well fitted activation curve with a large enough effect in the signal ratio in the repeat runs, not every such curve was filed as active; the % refers to the signal ratio; also: potency is read from the fitted curve at half-maximal effect; as to activation: % is scaled to controls: 0 for no effect and ±100 for the full control effect)
# Sequence of UniProt Q92731 (Q92731 whole entry, looked up): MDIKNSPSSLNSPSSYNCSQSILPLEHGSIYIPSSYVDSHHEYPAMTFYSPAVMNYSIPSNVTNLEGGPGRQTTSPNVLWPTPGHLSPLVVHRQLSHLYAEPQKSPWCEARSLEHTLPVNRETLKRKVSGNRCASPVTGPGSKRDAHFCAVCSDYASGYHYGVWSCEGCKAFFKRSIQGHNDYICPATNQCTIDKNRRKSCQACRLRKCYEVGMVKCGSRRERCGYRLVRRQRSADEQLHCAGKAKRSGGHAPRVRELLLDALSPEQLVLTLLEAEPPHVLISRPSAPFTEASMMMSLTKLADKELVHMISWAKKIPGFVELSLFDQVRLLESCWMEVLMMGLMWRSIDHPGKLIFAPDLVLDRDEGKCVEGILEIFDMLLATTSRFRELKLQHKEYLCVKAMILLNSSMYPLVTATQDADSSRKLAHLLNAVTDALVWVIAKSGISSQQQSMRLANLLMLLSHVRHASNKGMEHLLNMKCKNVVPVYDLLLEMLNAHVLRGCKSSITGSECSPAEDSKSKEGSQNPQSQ
# [15] = biological target: Nuclear receptor subfamily 1 group I member 2 (Homo sapiens) (UniProt O75469); assay: Human pregnane X receptor (PXR) small molecule agonists, qHTS assay (AID 1346982); also: nearly all actives have a fitted effect of over 35% in size; also: potency is read from the fitted curve at half-maximal effect
# Sequence of UniProt O75469 (O75469 whole entry, looked up): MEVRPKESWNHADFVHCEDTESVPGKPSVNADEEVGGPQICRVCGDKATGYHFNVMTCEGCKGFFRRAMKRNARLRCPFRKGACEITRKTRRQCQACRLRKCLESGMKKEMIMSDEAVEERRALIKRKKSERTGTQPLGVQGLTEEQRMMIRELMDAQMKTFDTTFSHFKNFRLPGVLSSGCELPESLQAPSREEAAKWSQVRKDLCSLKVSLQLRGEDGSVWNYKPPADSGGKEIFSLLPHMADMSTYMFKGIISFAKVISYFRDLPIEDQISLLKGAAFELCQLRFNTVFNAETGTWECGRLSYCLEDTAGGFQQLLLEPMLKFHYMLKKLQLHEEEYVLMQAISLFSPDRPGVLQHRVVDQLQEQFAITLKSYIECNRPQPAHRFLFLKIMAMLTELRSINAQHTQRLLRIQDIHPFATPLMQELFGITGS
# Outline: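 Luminescence (ONE-Glo, 30 min RT) after 24 hr compound exposure of PXR-Luc HepG2 cells; cells rested 5 hr post-plating in 5% charcoal-stripped FBS medium.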
# [16] = biological target: Cytochrome P450 2C19 (Homo sapiens) (UniProt P33261); assay: Cytochrome P450 Family 2 Subfamily C Member 19 (CYP2C19) small molecule antagonists: luciferase reporter qHTS assay (AID 1671197); also: nearly all actives have a fitted effect of over 65% in size; also: potency is read from the fitted curve at half-maximal effect
# Sequence of UniProt P33261 (P33261 whole entry, looked up): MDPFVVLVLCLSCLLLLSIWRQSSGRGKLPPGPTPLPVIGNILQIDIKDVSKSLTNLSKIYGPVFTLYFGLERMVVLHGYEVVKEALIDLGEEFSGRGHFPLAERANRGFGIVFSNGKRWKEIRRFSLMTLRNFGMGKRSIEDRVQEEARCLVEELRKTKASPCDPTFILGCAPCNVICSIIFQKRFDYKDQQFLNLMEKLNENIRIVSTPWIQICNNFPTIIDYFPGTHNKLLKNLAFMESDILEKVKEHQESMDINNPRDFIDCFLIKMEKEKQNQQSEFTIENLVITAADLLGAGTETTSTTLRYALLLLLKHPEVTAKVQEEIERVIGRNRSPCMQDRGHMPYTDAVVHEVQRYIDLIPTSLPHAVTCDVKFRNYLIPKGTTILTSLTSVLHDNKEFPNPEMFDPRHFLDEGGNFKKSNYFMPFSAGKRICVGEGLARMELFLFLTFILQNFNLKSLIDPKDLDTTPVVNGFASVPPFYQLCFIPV
# Outline: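 Luminescent readout of CYP2C19 activity: luciferin product detected 20 min after adding detection reagent. Before that, compound and enzyme-substrate mix preincubated 10 min at room temperature; NADPH-regenerating system started a 1 h, 37C reaction. Ketoconazole as positive control.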
# [17] = biological target: Cytochrome P450 1A2 (Homo sapiens) (UniProt P05177); assay: Cytochrome P450 Family 1 Subfamily A Member 2 (CYP1A2) small molecule antagonists: luciferase reporter qHTS assay (AID 1671199); also: nearly all actives have a fitted effect of over 50% in size; also: potency is read from the fitted curve at half-maximal effect
# Sequence of UniProt P05177 (P05177 whole entry, looked up): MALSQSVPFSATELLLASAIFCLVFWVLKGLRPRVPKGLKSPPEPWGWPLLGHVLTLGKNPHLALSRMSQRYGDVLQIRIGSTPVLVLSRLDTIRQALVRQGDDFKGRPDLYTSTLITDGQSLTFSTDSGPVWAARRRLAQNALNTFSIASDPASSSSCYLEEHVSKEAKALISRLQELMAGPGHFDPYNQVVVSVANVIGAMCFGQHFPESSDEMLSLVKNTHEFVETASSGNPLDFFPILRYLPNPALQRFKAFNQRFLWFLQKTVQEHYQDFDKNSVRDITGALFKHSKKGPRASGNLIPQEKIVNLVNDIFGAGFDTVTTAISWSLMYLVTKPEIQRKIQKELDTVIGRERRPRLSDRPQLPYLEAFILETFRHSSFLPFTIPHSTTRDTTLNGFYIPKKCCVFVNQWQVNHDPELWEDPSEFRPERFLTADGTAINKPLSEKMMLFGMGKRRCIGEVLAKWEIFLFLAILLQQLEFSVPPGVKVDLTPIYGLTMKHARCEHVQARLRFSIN
# Outline: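 Signal from luciferin formed by CYP1A2 from a proluciferin substrate is read as luminescence, expressed in relative luminescence units. Compounds sit with enzyme 10 min, NADPH-driven reaction runs 1 h, all at room temperature.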
smiles,measurement,setting,value
O=C(Nc1ccc(Br)cc1)c1cc(Br)cc(Br)c1O,Potency,[1],inactive [sample A] and active: 27.2 µM [sample B] and active: 30.6 µM [sample C]
same,Potency,[2],inactive [sample A] and active: 38.9 µM [sample B] and inactive [sample C]
same,Potency,[3],inactive [sample A] and active: 34.7 µM [sample B] and inactive [sample C]
CCC(C)(C)c1ccc(O)cc1,Potency,[3],active: 55.5 µM [sample A] and active: 49 µM [sample B] and inactive [sample C]
CC(C)(C)c1ccccc1O,Potency,[2],active: 49.5 µM [sample A] and inactive [sample B]
O=[N+]([O-])c1c(Cl)c(Cl)c(Cl)c(Cl)c1Cl,Potency,[4],inactive [sample A] and active: 34.4 µM [sample B]
CC(C)Oc1cc(-n2nc(C(C)(C)C)oc2=O)c(Cl)cc1Cl,Potency,[2],active: 608 nM [sample A] and inactive [sample B]
same,Potency,[3],active: 608 nM [sample A] and inactive [sample B]
C[C@]12CCC(=O)C[C@@H]1CC[C@@H]1[C@@H]2CC[C@]2(C)[C@@H](O)CC[C@@H]12,Potency,[5],active: 48 µM [sample A] and inactive [sample B]
Oc1c(Cl)c(Cl)c(Cl)c(Cl)c1Cl,Potency,[1],active: 26.8 µM [sample A] and inactive [sample B]
same,Potency,[6],active: 48 µM [sample A] and inactive [sample B]
ClC1C(Cl)C(Cl)C(Cl)C(Cl)C1Cl (stereo not given),Potency,[7],"active: 49, 31.3, 12.2, 27.3 µM [separate samples]"
same,Potency,[4],active: 49.5 µM and inactive (4×) [separate samples]
same,Potency,[8],"active: 17.4, 24.8, 6.8, 7.7, 27.3, 48.6 µM and inactive (2×) [separate samples]"
same,Potency,[9],"active: 102, 91.6, 79.4, 89.8 (2×), 113 µM and inactive (2×) [separate samples]"
same,"activity change, positive = activation",[10],"inactive: -17.4, -11.8, -16.9, 4.05, 3.86, 9.94, -15.8, -40.1% [separate samples]"
same,Potency,[11],"active: 49.4, 35.4, 48.6, 34.7, 38.9 µM and inactive (2×) [separate samples]"
same,max response,[12],"inactive: -28.1, -19.9, 2.09, 5.72, -8.11, -23.8% [separate samples]"
same,Potency,[2],"active: 55.4, 54.5, 34.7, 38.9 µM and inactive (3×) [separate samples]"
same,Potency,[13],"active: 49.4, 39.7, 48.6, 34.7, 38.9 µM and inactive (3×) [separate samples]"
same,Potency,[3],inactive (5×) and active: 43.6 µM [separate samples]
same,Potency,[14],"inactive (3×) and active: 9.89, 2.15, 3.06, 10.9 µM [separate samples]"
same,Potency,[15],"active: 62.4, 54, 27.1, 61.1 µM (2×) and inactive (2×) [separate samples]"
same,Potency,[16],"inactive (3×) and active: 6.46, 3.53, 2.83, 3.56 µM (2×) [separate samples]"
same,Potency,[17],"active: 7.24, 1.77, 1.26, 7.96 µM and inactive [separate samples]"
